Data on three compounds can be found in US20230023009A1, “HETEROCYCLIC COMPOUNDS AND METHODS OF USE THEREOF” (SPARCBIO LLC, priority 2020, published 2023).

Molecules are shown by their SMILES.

The target in one assay is KRAS G12C protein (Homo sapiens, UniProt P01116, G12C). Briefly: Nucleotide exchange assay (Method III, KRAS G12C/Raf-RBD TR-FRET). The format is biochemical. The following applies: SOS1-mediated exchange of GDP for GTP, 18 hr compound incubation. How it is done: Method III. Inhibition of SOS1-mediated exchange of GDP for GTP on the KRAS G12C protein was measured in a biochemical assay that monitors association of KRAS G12C protein with the Ras-binding domain of Raf (Raf-RBD), where the association is coupled to exchange of GDP to GTP on the KRAS G12C protein. The assay was performed at WuXi AppTec (Shanghai, China). Compounds were serially diluted in 3-fold dilutions to 11 concentrations and spotted into the wells of an assay plate in a total volume of 150 nL DMSO per well. A 2× enzyme mix was prepared by diluting GDP-bound, His-tagged KRAS G12C to 25 nM in assay buffer. 10 μL/well of 2× enzyme mix was added to all wells, and the plate was sealed and incubated overnight (18 hr) at 23° C. 4×SOS1/GDP and 4×SOS1/GTP were prepared in assay buffer. 5 μL/well of 4×SOS1/GDP mix was added to negative control wells, 5 μL/well of 4×SOS1/GTP mix was added to the remaining wells, and the plate was further incubated at 23° C. for 1 hr. […] The TR-FRET signals, which increase with association of KRAS G12C and Raf-RBD, were measured on a Perkin Elmer Envision 2104 plate reader, and data were analyzed by non-linear regression to obtain IC50 values for inhibition by compounds. […]
Chain of KRAS G12C protein (P01116 1-188 isoform P01116-2 G12C): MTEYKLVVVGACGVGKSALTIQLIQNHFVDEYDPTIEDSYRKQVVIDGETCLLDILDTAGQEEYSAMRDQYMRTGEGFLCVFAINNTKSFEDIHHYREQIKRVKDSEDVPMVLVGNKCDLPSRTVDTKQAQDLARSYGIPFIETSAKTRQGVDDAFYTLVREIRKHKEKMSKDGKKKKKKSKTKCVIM

The next assay deals with A549. Briefly: Cell proliferation assay panel (Cell Titer-Glo, 72 hr). The format is cell-based. The following applies: Homo sapiens. How it is done:
(§1) Potency of compounds was determined in cell proliferation assays in a panel of cancer cell lines. Cells were seeded in 384-well plates (Corning, Cat. #3765) at specified densities in 40 μL of culture medium and incubated overnight at 37° C. in a 5% CO2 incubator (culture conditions). With a robotic dispenser, serially diluted test compounds were added in a volume of 20 nL DMSO to wells in the culture plate to achieve the final desired concentrations of test compounds, and the cells were further incubated in culture conditions for 72 hr. The assay was terminated by addition of 25 μL of Cell Titer-Glo reagent (Promega, Madison, Wis.) to each well. Contents were mixed, the plate was incubated for 10 min at room temperature and luminescence was measured. The IC50 value of each test compound was calculated with XLFit curve fitting software. Results are shown in Table 4. ‘+++’ indicates IC50 values≤300 nM, ‘++’ indicates IC50 values between 300 nM-3 μM, and ‘+’ indicates IC50 values≥3 μM.

In the next assay the test system is KYSE-410. The assay is described as above. It counts as cell-based. The following applies: Homo sapiens. How it is done:
as §1

The test system of a further assay is MIA PaCa-2. The assay is described as above. The format is cell-based. The settings on record: Homo sapiens, MIA PaCa-2, 72 h. How it is done:
as §1

A further assay concerns NCI-H1373. The assay is described as above. The format is cell-based. The settings on record: Homo sapiens. How it is done:
as §1

The next assay deals with NCI-H2030. Described as above. It counts as cell-based. The following applies: Homo sapiens. How it is done: as §1
The next assay concerns NCI-H2122. The description is as above. The format is cell-based. The settings on record: Homo sapiens. How it is done:
as §1

A further assay has as its system NCI-H358. The assay is described as above. The format is cell-based. The following applies: Homo sapiens. How it is done: as §1
In another assay the test system is SW1573. The description is as above. The format is cell-based. The following applies: Homo sapiens. How it is done:
as §1

Another assay deals with NCI-H358 cells. In words: 3D cell proliferation assay (Cell Titer-Glo 3D, 7 days). The format is cell-based. The settings on record: Homo sapiens, NCI-H358, 168 h, NCI-H358 3D, ultra-low attachment plate. As for the experimental part:
NCI-H358 cells (ATCC® CRL-5807™) were plated in a 384-well Black/Clear Round Bottom Ultra-Low Attachment Microplate (Corning) in medium (RPMI-1640+10% FBS) at a density of 1000 cells in 50 μL per well, then incubated overnight at 37° C. and 5% CO2. Cells were treated with test compounds at 9 concentrations within a specified concentration range (e.g., 0.5 nM-10 μM) for generation of dose response curves. Test compounds were prepared by 1:3 serial dilution in DMSO from a specified starting concentration (e.g., 20 μM, 2 μM or 0.2 μM) and then added to wells of the assay plate in a total volume of 150 nL DMSO. The cells were further incubated at 37° C. and 5% CO2 for 7 days. Cell viability was assessed by adding 40 μL of Cell Titer-Glo® 3D reagent (Cat. No.: G9683, Promega) to each well and reading luminescence after mixing and incubation of the samples. The IC50 value of each test compound was calculated with XLFit curve fitting software.

In assay [1] the test system is NCI-H358 subcutaneous xenograft tumors. Briefly: NCI-H358 mouse xenograft model. The settings on record: 30 mg/kg orally once daily; Day 20 after treatment start (day not restated for comparators).
Another assay has as its target T1, hERG potassium channel (Homo sapiens, UniProt Q12809).
T1 construct: host or cells: CHO
In words: hERG inhibition assay (manual whole-cell patch-clamp, CHO cells). It counts as cell-based. How it is done: Compounds were tested for the potential to inhibit the hERG potassium channel. It is known that inhibition of the hERG channel may cause QT prolongation and increase the risk of cardiac arrhythmias. Therefore, to avoid cardiotoxicity, a compound with relatively low or no inhibition of the channel is desirable. Manual whole-cell patch-clamp recordings were made in Chinese hamster ovary (CHO) cells stably expressing hERG channels (B'Sys, Switzerland). Standard intracellular and bath solutions for hERG current detection were used. Cells were exposed to test compounds at 6 concentrations prepared by 1:3 serial dilution of compounds from a top starting concentration of 30 μM. Currents were elicited by stepping the voltage from a holding potential of −80 mV to −50 mV (20 ms) and then stepping to +40 mV (4 s). A subsequent step to −50 mV (4 s) was used to elicit a tail current which was used for data analysis. Current recordings were made in triplicate using three different cells. Data normalized to the activity in vehicle (0.1 or 0.3% DMSO) were fit with 4-parameter non-linear regression, and IC50 values were determined from the dose-response curves, using GraphPad Prism software.

T1 sequence (Q12809 whole entry): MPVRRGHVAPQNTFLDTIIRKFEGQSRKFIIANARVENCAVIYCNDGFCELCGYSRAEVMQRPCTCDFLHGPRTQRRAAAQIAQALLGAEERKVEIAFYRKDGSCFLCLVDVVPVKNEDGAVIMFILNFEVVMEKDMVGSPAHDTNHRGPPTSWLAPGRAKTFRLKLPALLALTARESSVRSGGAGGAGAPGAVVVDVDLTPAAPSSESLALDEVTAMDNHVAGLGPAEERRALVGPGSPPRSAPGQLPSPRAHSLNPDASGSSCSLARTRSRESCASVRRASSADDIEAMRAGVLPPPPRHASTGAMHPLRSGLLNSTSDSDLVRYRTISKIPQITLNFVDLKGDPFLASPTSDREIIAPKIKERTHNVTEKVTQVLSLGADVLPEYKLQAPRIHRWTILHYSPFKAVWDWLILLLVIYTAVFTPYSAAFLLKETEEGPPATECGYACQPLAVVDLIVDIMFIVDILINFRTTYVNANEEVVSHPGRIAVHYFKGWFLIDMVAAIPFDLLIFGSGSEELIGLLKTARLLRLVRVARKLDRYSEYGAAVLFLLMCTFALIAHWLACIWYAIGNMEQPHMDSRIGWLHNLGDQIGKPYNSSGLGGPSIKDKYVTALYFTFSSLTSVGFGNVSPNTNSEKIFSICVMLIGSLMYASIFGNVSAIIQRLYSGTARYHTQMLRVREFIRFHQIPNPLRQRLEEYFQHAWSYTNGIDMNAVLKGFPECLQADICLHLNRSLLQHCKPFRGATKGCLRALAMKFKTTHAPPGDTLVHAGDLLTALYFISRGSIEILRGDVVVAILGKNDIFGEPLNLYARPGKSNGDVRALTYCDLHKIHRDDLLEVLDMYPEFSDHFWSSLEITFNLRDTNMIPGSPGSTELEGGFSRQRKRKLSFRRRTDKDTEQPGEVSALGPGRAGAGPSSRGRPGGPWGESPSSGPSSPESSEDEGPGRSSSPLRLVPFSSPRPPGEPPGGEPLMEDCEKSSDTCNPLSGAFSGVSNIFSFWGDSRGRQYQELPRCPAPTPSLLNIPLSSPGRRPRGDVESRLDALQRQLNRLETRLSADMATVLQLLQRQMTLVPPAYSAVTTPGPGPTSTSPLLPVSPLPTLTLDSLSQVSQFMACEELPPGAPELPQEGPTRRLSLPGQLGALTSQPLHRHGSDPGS

Regarding `C=C(F)C(=O)N1CCN(c2nc(N3CC(N(CC)CC)C3)nc3c2COC(c2cccc4cccc(Cl)c24)C3)C[C@@H]1CC#N` (single isomer, unassigned) [229 (Isomer A)], the concentration for half-maximal inhibition (IC50) on KRAS G12C protein is at most 300 nM; in the assay on A549, at least 3000 nM; in the assay on KYSE-410, at least 3000 nM; with MIA PaCa-2, 300 to 3000 nM; with NCI-H1373 it was at least 3000 nM; in the assay on NCI-H2030, 300 to 3000 nM. Moreover, the IC50 was at least 3000 nM in the assay on NCI-H2122, at most 300 nM with NCI-H358, at least 3000 nM with SW1573 and at most 100 nM with NCI-H358 cells.
On to `C=CC(=O)N1CCN(c2nc(=O)n(-c3c(C)ccnc3C(C)C)c3nc(-c4c(O)cccc4F)c(F)cc23)[C@@H](C)C1` [X (AMG 510), reference compound], for which the TGI in assay [1] amounted to 87.1%.
On hERG potassium channel, `C=C(F)C(=O)N1CCN(c2nc(OC[C@@H]3CCCN3C)nc3c2CCN(c2cccc4cccc(Cl)c24)C3)C[C@@H]1CC#N` [Y (MRTX849)] came in with a 50% inhibitory concentration (IC50) of 710 nM.
